This note sets out measurements from PMC4336329 (PLoS ONE, 2015).

Structures are written as SMILES. Out of some 310,000 compounds screened, about 14,000 (4.5%) showed an effect of 50% or more. Effects have a minus sign here. This is one part of the list.
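Also: peak tail current of the secondary pulse compared with the same well before compound.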

For this test, the target named is human ether-à-go-go-related gene (hERG) potassium channel (human, UniProt Q12809). Kind of test: primary screen, population patch clamp on CHO cells stably expressing hERG.
human ether-à-go-go-related gene (hERG) potassium channel, sequence (Q12809 whole entry, looked up): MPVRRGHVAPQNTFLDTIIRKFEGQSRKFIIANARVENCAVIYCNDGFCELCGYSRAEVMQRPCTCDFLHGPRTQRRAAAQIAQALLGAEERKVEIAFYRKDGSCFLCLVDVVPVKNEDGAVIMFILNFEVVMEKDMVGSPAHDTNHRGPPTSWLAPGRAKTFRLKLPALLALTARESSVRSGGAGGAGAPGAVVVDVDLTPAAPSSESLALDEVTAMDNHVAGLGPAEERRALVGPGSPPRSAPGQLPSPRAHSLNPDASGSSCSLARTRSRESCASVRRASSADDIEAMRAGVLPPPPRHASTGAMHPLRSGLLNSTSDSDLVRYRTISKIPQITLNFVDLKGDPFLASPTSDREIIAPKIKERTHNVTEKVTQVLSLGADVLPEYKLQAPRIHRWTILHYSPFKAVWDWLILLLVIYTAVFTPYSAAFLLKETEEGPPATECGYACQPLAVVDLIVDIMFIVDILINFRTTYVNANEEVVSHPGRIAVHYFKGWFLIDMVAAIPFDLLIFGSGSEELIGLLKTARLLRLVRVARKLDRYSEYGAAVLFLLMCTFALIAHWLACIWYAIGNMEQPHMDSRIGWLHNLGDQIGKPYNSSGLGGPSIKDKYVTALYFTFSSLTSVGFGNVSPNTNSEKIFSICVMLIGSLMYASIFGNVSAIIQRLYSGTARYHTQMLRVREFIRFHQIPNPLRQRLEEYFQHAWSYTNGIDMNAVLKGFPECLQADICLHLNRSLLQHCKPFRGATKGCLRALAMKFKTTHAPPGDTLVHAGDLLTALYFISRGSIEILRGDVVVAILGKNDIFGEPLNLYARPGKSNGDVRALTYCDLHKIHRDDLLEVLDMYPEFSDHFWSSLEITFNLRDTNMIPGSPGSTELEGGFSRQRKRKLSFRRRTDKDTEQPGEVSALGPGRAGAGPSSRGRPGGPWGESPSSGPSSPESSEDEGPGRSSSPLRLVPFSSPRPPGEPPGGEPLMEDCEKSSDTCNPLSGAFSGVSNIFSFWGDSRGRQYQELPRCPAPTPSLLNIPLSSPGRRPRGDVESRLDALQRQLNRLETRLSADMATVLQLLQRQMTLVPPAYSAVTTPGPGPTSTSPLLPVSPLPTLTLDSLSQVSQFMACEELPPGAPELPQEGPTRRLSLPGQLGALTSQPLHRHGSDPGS
With `O=C(NCCS(=O)(=O)N1CCN(c2ccc(F)cc2)CC1)C1CC(=O)N(c2ccccc2)C1` (centres unmarked), the “hERG current change (%, negative = inhibition) at 10uM” value was -1.74%.
As for `CCOC(=O)CNC(=O)CCCCCC(=O)NCC(=O)OCC`, the figure is 7.47%; as for `CCN1CCC(N(C)C2CCCCC2)CC1`, -2.12%; as for `Cc1cc(-c2nnc(CCC(=O)N3CCN(Cc4cccc(F)c4)CC3)o2)c(C)o1`, -36.2%.
For the compound `Cc1c(NC(=S)N/N=C\c2ccccc2O)c(=O)n(-c2ccccc2)n1C`, the “hERG current change (%, negative = inhibition) at 10uM” value was -6.26%.
As to `CC(=O)N1c2ccc(S(=O)(=O)N(C)c3cc(C)ccc3C)cc2CC1C` (centres unmarked), the “hERG current change (%, negative = inhibition) at 10uM” value was -8.67%.
In the case of `CC(C)(C)NC(=O)Cn1nnc(-c2ccc(S(C)(=O)=O)cc2)n1` it was -1.52%.
As for `Cc1ccc(C(=O)Nc2ccc(O)cc2C(=O)O)cc1`, the figure is 19.1%.
In the case of `Cc1cc(Cn2ccnc2)c(C)cc1Cn1ccnc1` it was -0.954%; in that of `CC(C)(C)C(=O)NC1=NCCS1`, 15.7%.
As to `Cc1onc(-c2c(F)cccc2Cl)c1C(=O)NC1CCSC1=O` (centres unmarked), the “hERG current change (%, negative = inhibition) at 10uM” value turned out to be 0.262%.
In the case of `CCCNC(=O)C1CCC(CNS(=O)(=O)c2cccc3nsnc23)CC1` (centres unmarked) it was 4.95%.
In the case of `c1ccc2c(-c3[nH]ncc3CNCCCn3ncc4ccccc43)cccc2c1` it was -34.4%.
As for `Cc1cc(-c2nnnn2-c2ccc(F)cc2)no1`, the figure is 18.7%; as for `CCCCn1nc(C(=O)N(CC)CC(=O)Nc2c(F)cccc2F)c2ccccc2c1=O`, -7.72%.
On to `CC1Cc2ccccc2N1Cc1cccc(S(=O)(=O)N(C)C)c1` (centres unmarked), for which the “hERG current change (%, negative = inhibition) at 10uM” value turned out to be 8.8%.
In the case of `Cc1ccc(C2(C(=O)N3CCC(n4nc(-c5ccccc5)oc4=O)CC3)CC2)cc1` it was -17%; in that of `COc1ccc(C2(CNC(=O)c3ccc(OC)c([N+](=O)[O-])c3)CCOCC2)cc1OC`, -9.42%; in that of `O=C(/C=C(\O)c1ccc(Cl)cc1)C(=O)NNC(=O)C(O)(c1ccccc1)c1ccccc1`, -2.73%.
In the case of `CC#CCCCC(=O)Nc1cccc(C(=O)O)c1` it was 0.392%; in that of `CCn1c(=O)c2ccccc2n(Cc2cccc(C)c2)c1=O`, 3.93%.
As for `Cc1ccc(C)c(OCCC(=O)OCC(=O)Nc2cccnc2Cl)c1`, the figure is 9.83%; as for `O=C(O)CSC1c2ccccc2C(=O)N1c1ccccc1` (centres unmarked), 12.2%; as for `Cc1ccc(N=Cc2cc3c(cc2[N+](=O)[O-])OCO3)cc1[N+](=O)[O-]`, 17.4%.
In the case of `O=c1[nH]c(/C=C/c2ccccc2[N+](=O)[O-])nc2ccccc12`, the “hERG current change (%, negative = inhibition) at 10uM” value amounted to 7.84%.
In the case of `CC1CCC(NC(=O)COC(=O)C2CC3CCCC(C2)C3=O)CC1` (centres unmarked) it was -0.0582%; in that of `O=C(O)c1cccc(Oc2cccc(Cl)n2)c1`, 19.1%; in that of `COc1ccc(OC)c(Cc2nnc(CCC(=O)NCc3nc4ccccc4s3)o2)c1`, -9.48%.
In the case of `CCOC(=O)N1CCN(C(=O)c2cc(COc3c(F)cccc3F)on2)CC1` it was -6.31%.
As for `Cc1ccc(NC(/C=C/N(C)C)=C/C(=O)C(F)(F)F)c(C)c1`, the figure is -56.7%; as for `CCN(c1ccccc1)c1nc(C#N)nc(N(CC)c2ccccc2)n1`, 3.56%.
Turning to `COc1ccc(N2C(=O)CC(N3CCN(Cc4ccc5c(c4)OCO5)CC3)C2=O)cc1` (centres unmarked), the “hERG current change (%, negative = inhibition) at 10uM” value was 25.1%.
As for `CCC(C)NCCCOc1ccc([N+](=O)[O-])cc1.O=C(O)C(=O)O` (centres unmarked), the figure is -74.7%; as for `CC(OC(=O)c1ccc(NS(=O)(=O)c2cccs2)cc1)C(=O)N(C)C1CCCCC1` (centres unmarked), -0.558%.
In the case of `COc1ccc(NCc2nnc(SCC(=O)Nc3cc(C(F)(F)F)ccc3Cl)o2)cc1` it was 15%.
As for `COc1ccccc1NC(=O)Nc1nn(C)c2cccc(N(C)C)c12`, the figure is 11%.
As to `Cc1cc(NC(=O)c2cccc(Oc3ccccc3)c2)n[nH]1`, the “hERG current change (%, negative = inhibition) at 10uM” value is 1.16%.
For the compound `C[C@@H]1CN(C(=O)c2cc(COc3cccc(C(F)(F)F)c3)on2)C[C@H](C)O1`, the “hERG current change (%, negative = inhibition) at 10uM” value is listed as 8.11%.
As for `Cc1cccc(-c2oc3ccc(-c4ccc5c(c4)OCO5)cc3c2C(=O)OCc2ccc(O)cc2)c1`, the figure is 6.27%; as for `COC(=O)c1c(Cc2ccccc2Cl)c[nH]c1C`, 14.2%.
As for `O=C(CSc1c2c(nc3ccccc13)CCC2)N1CCCC1`, the figure is 4.57%; as for `CC(=O)N1c2ccc(S(=O)(=O)NCCC(=O)N3CCCC(C)C3)cc2CC1C` (centres unmarked), 10.4%.
In the case of `O=C(NCc1ccco1)C1CC(c2c(Cl)cccc2Cl)=NO1` (centres unmarked) it was 14.4%; in that of `CCCCN(CCCNC(=O)Cn1nc(CC)n2c(cc3sc(C)cc32)c1=O)Cc1ccccc1`, -47.1%.
